# For at least one compound, name, drawing or mass did not settle the structure.
# System: transglutaminase (TGase)
# Experiment: Measurement of TG (TGase inhibitory activity, monodansyl cadaverine / N,N-dimethylcasein fluorescence, FDSS 3000)
# Format: biochemical
# Protocol: For example, the method described in the Example can be performed.
# The compound of the present invention (10 mM, 1 μL) was taken in a 96-well plate (Nunc, 96 Well Black Plate with Clear Bottom), an enzyme reaction solution (100 mM HEPES-NaOH, pH 7.5, 1 mM CaCl2, 20 μM monodansyl cadaverine, 0.05 mg/mL N,N-dimethylcasein, 5 μg/mL TGase) (0.1 ml) was added and the mixture was sufficiently mixed without making foams. The mixture was set on a fluorescence drug screening system FDSS 3000 (Hamamatsu Photonics K.K.), and changes in the fluorescence wavelength per unit time at 340 nm were measured, based on which the TGase inhibitory activity of the compound of the present invention was calculated. As a control, change in the fluorescence when 1 μL of DMSO (dimethyl sulfoxide) was added instead of the compound of the present invention was taken as 100, and TG50 was when the activity decreased to half due to the compound of the present invention.
# [1] = TGase activity with compound (10 mM, 1 μL in 0.1 ml enzyme reaction solution), DMSO control taken as 100
# [2] = TGase inhibitory activity value, Table 1
# [3] = TGase inhibitory activity measurement, unit not given
Structure (SMILES),TGase activity remaining (% of DMSO control = 100) [1],TGase activity remaining (% of DMSO control = 100) [2],also measured
"OB(c1ccccc1)c1cccc(COCc2ccccc2B(O)c2ccccc2)c1 [Example 124, (2-phenylhydroxyborylbenzyl)(3-(phenylhydroxyboryl)benzyl)ether]",90,–,"TGase activity remaining (% of DMSO control = 100) (TGase inhibitory activity value, Table 1, listed as 656): 90"
"NCCOB(c1ccccc1)c1ccc(COCc2ccc(B(OCCN)c3ccccc3)cc2)cc1 [Example 131, bis((4,4′-phenylaminoethoxyboryl)benzyl)ether]",16,16,–
"FC(F)(F)c1ccc(C(OB(c2ccccc2)c2cc(B(OC(c3ccc(C(F)(F)F)cc3)c3ccccn3)c3ccccc3)cc(B(OC(c3ccc(C(F)(F)F)cc3)c3ccccn3)c3ccccc3)c2)c2ccccn2)cc1 (stereo not drawn) [Example 132, 1,3,5-tri(2-pyridyl-4-trifluoromethylphenylmethoxyphenylboryl)benzene]",88,88,–
"Cc1ccc(Cl)cc1B(OCCNCc1ccccc1)c1cc(Cl)ccc1C [Example 164, di(3-chloro-6-methylphenyl)benzylaminoethylborinate]",94,–,–
"Cc1ccc(Cl)cc1B(OCCN)c1cc(Cl)ccc1C [Example 166, di(3-chloro-6-methylphenyl)aminoethylborinate]",74,–,–
"CN(C)CCOB(c1ccccc1)c1cccc(COCc2cccc(B(OCCN(C)C)c3ccccc3)c2)c1 [Example 172, bis(3,3′(phenyldimethylaminoethoxyboryl)benzyl)ether]",69,–,"TGase activity remaining (% of DMSO control = 100) (TGase inhibitory activity value, Table 1, listed as 2024): 69"
"Cc1ccc(B(OCCN(C)C)c2ccc(C)c(Cl)c2)cc1Cl [Example 207, di(3-chloro-4-methylphenyl)dimethylaminoethylborinate]",83,83,–
"Cc1ccc(B(OCC(N)Cc2ccccc2)c2ccc(C)c(Cl)c2)cc1Cl (stereo not drawn) [Example 208, di(3-chloro-4-methylphenyl)-2-benzyl-2-aminoethylborinate]",−7,−7,–

# Continued, in another order:
TGase activity remaining (% of DMSO control = 100) [1],TGase activity remaining (% of DMSO control = 100) [2],Structure (SMILES),also measured
115,–,"NC(COB(c1ccccc1)c1ccccc1)Cc1ccccc1 [Example 212, diphenyl(R) 2-benzyl-2-aminoethyl borinate]","TGase activity remaining (% of DMSO control = 100) (TGase inhibitory activity value, Table 1, listed as 3073): 115"
117,–,"NC(COB(c1ccccc1)c1ccccc1)Cc1ccccc1 [Example 213, diphenyl(S) 2-benzyl-2-aminoethyl borinate]","TGase activity remaining (% of DMSO control = 100) (TGase inhibitory activity value, Table 1, listed as 3075): 117"
69,69,Cc1ccc(B(OCc2ccccn2)c2ccc(C)c(Cl)c2)cc1Cl [Example 215],–
108,–,"OB(c1ccc(C(F)(F)F)cc1)c1ccc(C(F)(F)F)cc1 [Example 230, di(trifluoromethylphenyl)borinic acid]","TGase activity remaining (% of DMSO control = 100) (TGase inhibitory activity value, Table 1, listed as 4138): 108"
105,105,NCCOB(c1ccccc1)c1cccc(COCCc2ccccc2B(OCCN)c2ccccc2)c1 [Example 369],–
39,39,"OB(c1ccccc1)c1ccc(COc2ccc(B(O)c3ccccc3)cc2)cc1 [Example 370, (4-phenylhydroxyborylphenyl)(4′-phenylhydroxyborylbenzyl)ether]",–
−18,−18,"OB(c1ccc(COc2ccc(B(O)c3ccc(C(F)(F)F)cc3)cc2)cc1)c1ccc(C(F)(F)F)cc1 [Example 372, (4-trifluoromethylphenylhydroxyborylphenyl)(4′-trifluoromethylphenylhydroxyborylbenzyl)ether]",–
1,1,"NCCOB(c1ccc(COc2ccc(B(OCCN)c3ccc(C(F)(F)F)cc3)cc2)cc1)c1ccc(C(F)(F)F)cc1 [Example 373, (4-trifluoromethylphenylaminoethoxyborylphenyl)(4′-trifluoromethylphenylaminoethoxyborylbenzyl)ether]",–
−17,–,"NCCOB(c1ccc(Oc2ccccc2)cc1)c1ccc(Oc2ccc(B(OCCN)c3ccc(Oc4ccccc4)cc3)cc2)cc1 [Example 398, bis(4,4′-(phenoxyphenyl-aminoethoxyboryl)phenyl)ether]",TGase activity remaining (% of DMSO control = 100) [3]: −17
67,–,"CN(C)CCOB(c1ccccc1)c1cccc(COCc2cccc(B(OCCN(C)C)c3ccccc3)c2)c1 [Example 403, bis(3,3′-(phenyl-N,N-dimethylaminoethoxyboryl)benzyl)ether]","TGase activity remaining (% of DMSO control = 100) (TGase inhibitory activity measurement, unit not given, listed as 2022): 67"
−3,–,"NCCSB(c1ccccc1)c1cccc(COCc2cccc(B(SCCN)c3ccccc3)c2)c1 [Example 405, bis(3,3′-(phenyl-aminoethylthioboryl)benzyl)ether]",TGase activity remaining (% of DMSO control = 100) [3]: −3

# Source: US8853424B2 (Japan Science and Technology Agency, priority 2008, dated 2014)
